Results published in PubChem BioAssay AID1347417 (National Center for Advancing Translational Sciences (NCATS), 2020).
The whole screen tested about 120,000 compounds, of which about 5,300 (4.4%) were called active. This list was built around the results that the source calls inconclusive (neither active nor inactive); the mix of calls is not that of the screen. Calls follow the shape of the dose curve; as a rule, active = well fitted inhibition curve with a large enough effect; inconclusive = small, poorly fitted or top-dose-only effect; inactive = no such curve, though single readings can be large or run the other way. A potency beside an inconclusive call is a rough fit, not a confirmed value.

experiment: qHTS Primary assay for Inhibitors of Plasmodium falciparum Dd2 growth in vitro; also: nearly all actives have a fitted effect of over 65% in size;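 as to activity, negative = inhibition: plate controls were DMSO vehicle for no effect and reference drug for full effect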; conditions: P. falciparum Dd2 growth, SYBR Green, 72 h; activity, negative = inhibition: at 28.9 µM (top of the series) unless noted; series mostly up to 28.9 µM
Method in brief: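 Readout: SYBR Green fluorescence, 485 nm excitation, 535 nm emission, after ~16 h lysis at 37C. Before that, Dd2-infected red cells (2.5% hematocrit) grew 72 h with compound, 29 uM top final concentration.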
Potency is read from the fitted curve at half-maximal effect; tags tell the direction and shape of the fitted curve.

Row | Compound | Potency | activity, negative = inhibition
1 | COc1ccc(-c2nocc2CCC(=O)O)cc1 | inconclusive: 3.98 µM [inhibitor, single point] | –
2 | O=C(N[C@H](Cc1ccccn1)C1CC(O)C1)c1cccc2c1NCCC2 (stereo partly drawn) | inactive | –
3 | COCc1nc(-c2ccc(OC3CCN(C(=O)Nc4cccc(C)c4)C3)cc2)no1 (stereo not drawn) | – | inactive: 23.6% [at 5.79 µM]
4 | CC(C)CCN1C(=O)CC[C@]2(C(=O)N3CCC(C)CC3)CCCC[C@@H]12 | inconclusive: 11.2 µM [inhibitor, partial curve, poor fit] | –
5 | CN(C)c1ccc2ncc(Nc3ccccc3-c3ccccc3)n2n1 | inconclusive: 5.62 µM [inhibitor, single point] | –
6 | COCCN[C@@H]1C[C@@H]2c3[nH]c4ccccc4c3C[C@@H](C(=O)OC)N2[C@H](c2ccccc2)C1 | inconclusive: 7.08 µM [inhibitor, full curve, poor fit] | –
7 | Cc1ccc(NC(=O)C[C@H]2NC(=O)c3ccccc3NC2=O)c(Cl)c1 | inactive | –
8 | COc1ccc(N2CC(c3noc(-c4cc(OC)c(OC)c(OC)c4)n3)CC2=O)cc1OC (stereo not drawn) | inconclusive: 15.8 µM [inhibitor, single point] | –
9 | O=C(Nc1ccc(Cl)nc1)c1ccc2ccnn2c1 | inconclusive: 11.2 µM [inhibitor, single point] | –
10 | COCC1CN(C(=O)c2ccc(C)c(C)c2)CC12CCNCC2 (stereo not drawn) | inactive | –
11 | Cc1cc(C)cc(NC(=O)Cn2c3ncccc3c(=O)n2-c2ccc(C)c(C)c2)c1 | inconclusive: 10 µM [inhibitor, single point] | –
12 | Cc1ccc(NC(=O)N2CCN(c3nnnn3-c3cccc(C(C)C)c3)CC2)cc1F | active: 11.2 µM | –
13 | COc1ccc(NC(=O)N[C@H]2CO[C@H]3[C@@H]2OC[C@@H]3n2nnnc2Oc2ccc(-n3cncn3)cc2)cc1 | inconclusive: 12.6 µM [inhibitor, single point] | –
14 | O=C(CN1C(=O)C2CCCCN2c2ccc(C(=O)N3CCCC3)cc21)NCc1cccc(F)c1 (stereo not drawn) | inconclusive: 10 µM [inhibitor, single point] | –
15 | Cc1ccccc1NC(=O)Cn1nc2c(cc1=O)CCCCC2 | inactive | –
16 | Cc1nn2c(c1-c1ccccc1[S+](C)(=O)[O-])N(CCC(C)C)CCC2 | inconclusive: 1.26 µM [inhibitor, full curve, poor fit] | –
17 | Cc1ccc(Cn2cc(-c3ccncc3)cc2C(=O)N2CCN(C)CC2)cc1 | active: 6.31 µM | –
18 | COc1ccc(-c2ccccc2NC(=O)C2CCCN(Cc3ccn[nH]3)C2)cc1 (stereo not drawn) | inconclusive: 14.1 µM [inhibitor, single point] | –
19 | CC(Cn1cccn1)C(=O)N1CCc2onc(-c3ccc(F)c(F)c3)c2C1 (stereo not drawn) | inactive | –
20 | O=[S+]([O-])(Nc1ccccc1)c1ccc2c(c1)OCCN(Cc1ccncc1F)C2 | active: 5.01 µM | –
21 | CC(NC(=O)Cc1cccc(F)c1)C(=O)N1CCN(c2ccccn2)CC1 (stereo not drawn) | inconclusive: 0.251 µM [inhibitor, full curve, poor fit] | –
22 | CNC(=O)[C@@H]1C[C@H](Oc2ccccc2)CN1C(=O)CCc1ccccc1 | inactive | –
23 | COc1ccc(-c2cc3c(=O)n(CCNC(=O)c4ccc(N(C)C)cc4)ccn3n2)cc1 | inconclusive: 0.0708 µM [inhibitor, full curve, poor fit] | –

Row | Compound | Potency | activity, negative = inhibition
24 | CN1C(=O)CS(=O)(=O)C12CCN(C(=O)Cc1ccc(Cl)cc1)CC2 | inactive | –
25 | COc1ccc(NC(=O)Cc2noc3ccc(C)cc23)cc1Cl | inconclusive: 7.94 µM [inhibitor, partial curve, poor fit] | –
26 | CCOc1ccc(N2CC(c3nc4ccccc4n3CCOc3ccc(CC)cc3)CC2=O)cc1 (stereo not drawn) | inactive | –
27 | COCCc1nncn1C1CCN(C(=O)c2ccc(C)c(F)c2)CC1 | inactive | –
28 | C=CCN1CCN(C(=O)C2N(c3ccc(OC)cc3)C(=O)C23CCCCC3)CC1 (stereo not drawn) | inconclusive: 12.6 µM [inhibitor, single point] | –
29 | CCn1ccc(C(=O)N2CCC(Cc3nncn3CC3CC3)CC2)n1 | inactive | –
30 | CCOc1cc(CNC(=O)c2ccc3nc(CCc4ccccc4)oc3c2)ccc1OC | inactive | –
31 | COc1ccc(NC(=O)CN2C(=O)C3(SCC(=O)N3c3cccc(OC)c3)c3ccccc32)cc1 (stereo not drawn) | inconclusive: 11.2 µM [inhibitor, single point] | –
32 | O=C(NC1CCN(c2cc(C(F)(F)F)ncn2)CC1)c1cccs1 | inactive | –
33 | CC(C)n1cc2cc(C(=O)NCc3cnccn3)sc2c1 | inactive | –
34 | CCOC(=O)c1c(C)oc2nc(C)nc(NCC3CCN(Cc4cccc(Cl)c4)CC3)c12 | inactive | –
35 | CC(C)c1nc2c(c(-c3ccc(O)cc3)n1)CCN(Cc1ccc(C(F)(F)F)cc1)CC2 | active: 1.78 µM | –
36 | Cc1cc2ccccc2nc1-c1cccc(O)c1 | inconclusive: 17.8 µM [inhibitor, single point] | –
37 | O[C@H]1[C@H](NCC2CCCCC2)[C@H]2CO[C@H](O2)[C@@H]1Sc1ccccc1 | inconclusive: 3.16 µM [inhibitor, partial curve, poor fit] | –
38 | CCCOc1cc(C)c2c(c1C)C[C@H](C(C)C(=O)NCc1ccc(OC)cc1)CC2 (stereo partly drawn) | active: 10 µM | –
39 | C=CCCC(CN1CCCC1)Oc1ncc(F)c(N2CCCC2)n1 (stereo not drawn) | inconclusive: 2.82 µM [inhibitor, single point] | –
40 | COc1cc(SC)ccc1C(=O)N[C@H]1C[C@@](O)(C(=O)NCCC(N)=O)C[C@@H](O)[C@@H]1O | inactive | –
41 | CC1(NC(=O)C2CC2)CN(Cc2nc(-c3ccccc3OCc3ccccc3)cs2)C1 | inconclusive: 1.78 µM [inhibitor, full curve, poor fit] | –
42 | Cc1cc(Nc2ccc(F)cc2)nc(-n2nc(C)cc2C)n1 | active: 11.2 µM | –
43 | O=C(NCc1cc2n(n1)CCN(C1CCCCC1)C2)c1cnn2ccccc12 | inconclusive: 10 µM [inhibitor, single point] | –
44 | CC1(Cc2ccc3c(c2)OCO3)CCCN(C(=O)CCCn2ccnc2)C1 (stereo not drawn) | inconclusive: 17.8 µM [inhibitor, single point] | –
45 | CC1(C)CN(S(=O)(=O)N2CCCC2)CC1c1ccccc1 (stereo not drawn) | inactive | –
46 | Cc1ccc(C(=O)Nc2ccc3nc(N4CCCCC4)cc(C)c3c2)cc1F | inconclusive: 14.1 µM [inhibitor, partial curve, poor fit] | –

Row | Compound | Potency | activity, negative = inhibition
47 | Cc1ccc(NC(=O)COc2cccc(-c3nnc4n3CCCC4)c2)cc1 | inconclusive: 5.01 µM [inhibitor, partial curve, poor fit] | –
48 | O=C1C(OCC2CC2)C2(CCCCC2)N1C1CCNCC1 (stereo not drawn) | inconclusive: 10 µM [inhibitor, single point] | –
49 | COCCC(=O)NCCC1CCN(C(=O)Nc2cc(F)cc(F)c2)CC1 | inactive | –
50 | O=C(C1C2C(=O)N(CCOc3ccccc3)C[C@@]23C=C[C@@H]1O3)N1CCSCC1 (stereo partly drawn) | inactive | –
51 | COc1ccc(CN2CCC3(CC2)COc2ccccc2NC3=O)cc1 | inactive | –
52 | Cc1ccc(C)c(N2CCN(CCCNC(=O)Nc3ccc(Cl)cc3)CC2)c1 | active: 10 µM | –
53 | CC(C)N(Cc1cnn(C)c1)Cc1cn(Cc2ccccc2)nc1-c1ccc2c(c1)OCO2 | inconclusive: 17.8 µM [inhibitor, single point] | –
54 | OCC1CN(c2ncccn2)CC12CCN(Cc1cccc(Cl)c1F)CC2 (stereo not drawn) | inconclusive: 17.8 µM [inhibitor, single point] | –
55 | CCOc1ccc(NC(=O)CN2C(=O)C3(SCC(=O)N3c3ccc(F)cc3)c3ccccc32)cc1 (stereo not drawn) | inconclusive: 8.91 µM [inhibitor, single point] | –
56 | CCN1C(=O)C(Cc2nc3ccccc3c(=O)n2-c2ccccc2)c2cc(Br)ccc21 (stereo not drawn) | inconclusive: 10 µM [inhibitor, single point] | –
57 | Clc1cccc(-c2cnc([C@@H]3COCCN3Cc3cnc[nH]3)[nH]2)c1 | inconclusive: 31.6 µM [inhibitor, single point] | –
58 | CCOc1ccccc1NC(=O)Cn1c2ncccc2c(=O)n1-c1ccc(C)c(C)c1 | inconclusive: 11.2 µM [inhibitor, single point] | –
59 | CCc1nn(CC(=O)N2CCN(c3cccc(C(F)(F)F)c3)CC2)c(=O)c2cccn12 | – | inconclusive: -139% [inhibitor] [at 0.594 µM]
60 | COc1ccc(CNC(=O)N2CCCC2c2noc(COc3ccc(C)cc3)n2)cc1 (stereo not drawn) | inconclusive: 6.31 µM [inhibitor, single point] | –
61 | COc1ccccc1N1CCCc2ncc(C(=O)N3CCCC[C@@H]3Cc3ccccc3)cc21 | active: 4.47 µM | –
62 | CC(C)N1C(=O)C2(CCCC2)C1C(=O)NCCN1CCC(Cc2ccccc2)CC1 (stereo not drawn) | inconclusive: 5.62 µM [inhibitor, partial curve, poor fit] | –
63 | O=C(Nc1cccnc1)N1CC2ON=C(C(=O)N3CCN(c4ncccn4)CC3)C2C1 (stereo not drawn) | – | inconclusive: -74.8% [inhibitor]
64 | C[C@@H](NC(=O)NC1(c2ccccc2)CCOCC1)c1onc(-c2ccc(F)cc2)c1C(=O)O | inconclusive: 3.98 µM [inhibitor, single point] | –
65 | O=C(C1CCCCC1)N1CC[C@H]2COC(=O)N2c2cc(F)ccc2C1 | inactive | –
66 | CCOCCCNC(=O)C(=O)Nc1c2c(nn1-c1ccc(OC)cc1)CSC2 | inconclusive: 17.8 µM [inhibitor, single point] | –
67 | Cc1ccc2c(=O)c(C(=O)c3ccc(F)cc3)cn(CC(=O)NCCc3ccccc3)c2n1 | inconclusive: 12.6 µM [inhibitor, partial curve, poor fit] | –
68 | Cc1ccccc1-c1cccc(CN2CCOC(CCN)C2)c1 (stereo not drawn) | inconclusive: 2.51 µM [inhibitor, full curve] | –
